# Values joined by “and” are separate entries in the source; they are usually repeats but may differ in a detail not shown here. Identical values can stand only once. Among all 340,000 compounds or so, about 12,000 (3.5%) were called active. Inconclusive results, whose numbers are uncertain, are shown with a selection of clear calls. Calls come from the whole dose curve; as a rule, active = well fitted inhibition curve with a large enough effect; inconclusive = small, poorly fitted or top-dose-only effect, or another doubt; inactive = no such curve, though single readings can be large or run the other way. Potencies beside an inconclusive call are fits to weak or partial responses and may not hold up.
# Experiment: qHTS Assay for Inhibitors of Hepatitis C Virus (HCV)
# Conditions: Huh7.5.1 HCVcc-Cre (HCVcc is cell-culture hepatitis C virus) infection, luciferase reporter, 44 h; activity change, negative = inhibition: at 41.8 µM (top of the series) unless noted
# Method in brief: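 A cell-based infection assay in which seeded cells (1,000 per well) receive test compound after 4 h, are inoculated with HCVcc-Cre at approximately 0.5 moi, and are incubated 44 h before luminescence detection.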
# % is set by controls: 0 for no effect and ±100 for the full control effect; potency is the fitted concentration of half-maximal effect; tags give direction and shape of the fitted curve.
SMILES,Potency,"activity change, negative = inhibition"
CCCCCC(=O)Nc1ccc(C(=O)CN2C(=O)NC3(CCCCCC3)C2=O)cc1,"inconclusive: 31.6 µM [inhibitor, single point]",
Cc1cccc(NC(=O)N2C[C@H]3C[C@@H](C2)c2cccc(=O)n2C3)c1,,inactive: -57.7%
Cn1c(=O)c2ncn(CC(=O)Nc3cc(C(F)(F)F)ccc3N3CCOCC3)c2n(C)c1=O,"inconclusive: 0.398 µM [inhibitor, full curve, poor fit]",
CCCn1cc(S(=O)(=O)c2ccc(F)cc2)c(=O)c2cc(OCC)ccc21,,inactive: -23.6%
CCc1ccc(S(=O)(=O)/N=C2\C=C(Nc3ccc(O)cc3)C(=O)c3ccccc32)cc1,"inconclusive: 3.55 µM [inhibitor, full curve]",
Cc1ccc(C(=O)N/N=C\c2ccc([N+](=O)[O-])o2)cn1,"inconclusive: 22.4 µM [inhibitor, single point]",
C(=NN=C(NN=Cc1cccs1)NN=Cc1cccs1)c1cccs1,active: 10 µM,
S=C(NC1CCCCC1)N1CCN(C/C=C/c2ccccc2)CC1,active: 8.91 µM,
COc1ccc(C(CNC(=O)c2cccc(S(=O)(=O)Nc3ccc(F)cc3)c2)N2CCCCC2)cc1 (configuration not stated),active: 5.01 µM,
c1ccc(CN2C3=NCCN3c3ccccc32)cc1,"inconclusive: 11.2 µM [inhibitor, partial curve, poor fit]",
CCCCOc1ccc(C(=O)NCC2(c3ccccc3)CCOCC2)cc1,,inactive: 4.88%
COc1ccccc1CN(C)C(=O)c1cccc(S(=O)(=O)N2CCN(Cc3ccccc3)CC2)c1,,inactive: -26.4%
Cc1cccc(NC(=O)CSc2nnc(-c3ccccc3C)o2)c1,"inactive and inconclusive: 10 µM [inhibitor, partial curve]",
CCC(C)Sc1cc(C)c(C#N)c2nc3ccccc3n12 (configuration not stated),"inconclusive: 11.2 µM [inhibitor, partial curve]",
Cn1cnc2nc[nH]c2c1=O,,inactive: 15%
O=C(COC(=O)c1cc([N+](=O)[O-])ccc1N1CCOCC1)c1ccc(Br)cc1,"inconclusive: 2.24 µM [inhibitor, partial curve]",
CCN(C[C@H]1N[C@@](Cc2ccccc2)(C(=O)OC)[C@H]2C(=O)N(Cc3ccccc3)C(=O)[C@@H]12)C(=O)c1ccc(C)cc1,,inactive: -2.26%
CC(NC(=O)c1cc2cc([N+](=O)[O-])ccc2oc1=O)C1CCCO1 (configuration not stated),,inactive: 31.1%
Cc1cc(-c2ccc(C)c(S(=O)(=O)NCCC(C)N3CCCCCC3)c2)on1 (configuration not stated),,inactive: -19.3%

SMILES,Potency,"activity change, negative = inhibition"
CC1(C)Cc2nc3sc4c(SCC(=O)NC(c5ccccc5)c5ccccc5)ncnc4c3cc2CO1,"inconclusive: 14.1 µM [inhibitor, single point]",
COc1ccccc1NC(=O)C(=O)NCCC1CCCCN1S(=O)(=O)c1ccccc1 (configuration not stated),"inconclusive: 31.6 µM [inhibitor, single point]",
CCOC(=O)c1c(NC(=O)CN2CCN(C(=O)c3ccco3)CC2)sc2c1CCCC2,"inconclusive: 12.6 µM [inhibitor, partial curve]",
CC1CC(C)CN(C(=O)c2ccc3c(c2NCCO)C(=O)c2ccccc2C3=O)C1 (configuration not stated),"inconclusive: 31.6 µM [inhibitor, single point]",
CCOC(=O)c1c(NC(=O)CSc2nnnn2-c2ccc(OC)cc2)sc(C)c1C,,inactive: -14.8%
O=S(=O)(NCCCc1ccccc1)c1ccc(F)c(F)c1,,inactive: -1.76%
O=C(Nc1ccc([N+](=O)[O-])cn1)C1CC2CCC1C2 (configuration not stated),,inactive: -5.87%
Cc1cc(Cl)ccc1NC(=S)NCCc1ccc(Cl)cc1,"inconclusive: 31.6 µM [inhibitor, single point]",
CCC(C)C(=O)Nc1nc(C)c(-c2csc(Nc3ccccc3OC)n2)s1 (configuration not stated),"inconclusive: 20 µM [inhibitor, single point]",
C1=C(CCNc2nnnn2-c2ccccc2)CCCC1,,inactive: -27.3%
COc1cccc(/C=N/n2cnc3cc(C)c(C)cc32)c1OC,,inconclusive: -33.3% [inhibitor]
COC(=O)c1ccc(C)cc1,,inactive: 15.4%
Cc1cc(/C=C(\C#N)C(=O)NCc2cccs2)c(C)n1-c1ccccc1F,"inconclusive: 10 µM [inhibitor, partial curve]",
Cc1ccc(C)c(N2CCN(c3nnnn3-c3ccccc3)CC2)c1,"inconclusive: 31.6 µM [inhibitor, single point]",
CC(C)(C)OC(=O)CC[C@@H](C(=O)N1CCN(C(=O)OC(C)(C)C)CC1)n1cc(C(Cc2ccc(O)cc2)NC(=O)OC(C)(C)C)nn1 (some centres not stated),"inconclusive: 31.6 µM [inhibitor, single point]",
COc1cccc(/C(C)=N/Nc2ccc(S(=O)(=O)N3CCCCC3)cn2)c1,"inconclusive: 15.8 µM [inhibitor, single point]",
CCc1nnc(NC(=O)Cn2c(=O)oc3ccccc32)s1,,inactive: 6.58%
O=C(Nc1nc(-c2ccc(Cl)cc2Cl)cs1)C1CCCO1 (configuration not stated),"inconclusive: 10 µM [inhibitor, single point]",

# From PubChem BioAssay AID651820 (National Center for Advancing Translational Sciences (NCATS), 2012)
